{
  "source": "PubChem BioAssay (Tox21)",
  "note": "The shares of active, inactive and inconclusive entries below differ from those in the screen. Potencies of inconclusive entries are left out as doubtful fits. Activity calls are given as the source filed them. Calls follow the shape of the dose curve; as a rule, active = well fitted inhibition curve with a large enough effect in the signal ratio in the repeat runs (not every such curve was filed as active); inconclusive = weak or mixed curves, or effect the other way; inactive = no such curve, though single readings can be large or run the other way; the % refers to the signal ratio. % is scaled to controls: 0 for no effect and ±100 for the full control effect; potency is read from the fitted curve at half-maximal effect; tags tell the direction and shape of the fitted curve or compound fluorescence and quenching.",
  "data": [
    {"biological_target": "Peroxisome proliferator-activated receptor delta (Homo sapiens) (UniProt Q03181)", "sequence (Q03181 whole entry, looked up)": "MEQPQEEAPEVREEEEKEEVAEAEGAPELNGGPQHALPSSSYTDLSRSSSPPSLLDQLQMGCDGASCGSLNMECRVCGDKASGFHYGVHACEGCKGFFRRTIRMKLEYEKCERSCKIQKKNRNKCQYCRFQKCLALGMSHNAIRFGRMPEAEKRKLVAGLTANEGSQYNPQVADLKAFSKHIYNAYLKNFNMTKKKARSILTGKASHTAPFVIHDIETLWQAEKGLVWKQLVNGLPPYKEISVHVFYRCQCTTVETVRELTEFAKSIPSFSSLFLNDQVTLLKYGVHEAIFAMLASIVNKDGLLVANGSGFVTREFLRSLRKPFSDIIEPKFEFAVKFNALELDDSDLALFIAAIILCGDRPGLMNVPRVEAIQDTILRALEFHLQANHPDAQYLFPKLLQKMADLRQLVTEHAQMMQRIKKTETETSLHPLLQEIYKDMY", "experiment": "qHTS assay to identify small molecule antagonists of the peroxisome proliferator-activated receptor delta (PPARd) signaling pathway (AID 743215);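 also: cells stimulated with agonist L165041 at 300 nM final during compound exposure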", "settings": "HEK293H PPARd-UAS-bla, beta-lactamase FRET ratio, antagonist, 17 h; ratio activity, negative = inhibition: at 62 µM (top of the series) unless noted", "procedure,_shortened": "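Screen format: qHTS, antagonist mode. HEK293H PPARd-bla cells received compound and 300 nM L165041 (final), 17 h, 37 C. Beta-lactamase detected via FRET substrate fluorescence, 2 h, room temperature.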", "values": [
      {"smiles": "Cc1ccc2nc(-c3ccc(N)cc3)sc2c1S(=O)(=O)O", "Potency": "inconclusive [fluorescent, partial curve, poor fit]"},
      {"smiles": "CCCCCC(=O)O[C@]1(C(C)=O)CC[C@H]2[C@@H]3CCC4=CC(=O)CC[C@]4(C)[C@H]3CC[C@@]21C", "Potency": "inconclusive [single point]", "ratio activity, negative = inhibition": "inconclusive: -28.2%"},
      {"smiles": "C=C1C(CCl)(CCl)C2(Cl)C(Cl)C(Cl)C1(Cl)C2(Cl)Cl", "note": "(centres undefined)", "Potency": "inconclusive [fluorescent]"},
      {"smiles": "CCc1cc(Cc2cc(CC)cc(C(C)(C)C)c2O)c(O)c(C(C)(C)C)c1", "Potency": "inconclusive [cytotoxic, full curve]"},
      {"smiles": "O=C(Oc1cccc2cccnc12)c1ccccc1", "Potency": "inconclusive [full curve]"},
      {"smiles": "CCCCCCCCCCCCc1ccc(O)cc1", "Potency": "inconclusive [cytotoxic, single point]"},
      {"smiles": "CCCCCCCCCOC(=O)c1ccc(O)cc1", "Potency": "inconclusive [cytotoxic, single point]"},
      {"smiles": "Oc1c(Cl)cc(Cl)c2cccnc12", "Potency": "inconclusive [rising, partial curve]"},
      {"smiles": "CC1=C(/C=C/C(C)=C/C=C/C(C)=C\\C=O)C(C)(C)CCC1", "ratio activity, negative = inhibition": "inconclusive: -65.8%"},
      {"smiles": "Clc1ccc2n[nH]nc2c1", "ratio activity, negative = inhibition": "inactive: 12.1%"},
      {"smiles": "CC(=O)c1ccc(S(=O)(=O)NC(=O)NC2CCCCC2)cc1", "Potency": "inactive"},
      {"smiles": "CCCCCCCCCCCCN1CCCC1=O", "ratio activity, negative = inhibition": "inconclusive: -46.4%"},
      {"smiles": "C=CC(=O)OCC(CO)(COCC(COC(=O)C=C)(COC(=O)C=C)COC(=O)C=C)COC(=O)C=C", "Potency": "active: 4.31 µM"}
    ]}
  ]
}
